Reference: PubChem BioAssay AID760 (NMMLSC, 2007)
In all, about 190,000 compounds went through this assay and about 360 (0.19%) were called active. Inconclusive results, whose numbers are uncertain, are shown with a selection of clear calls.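 The calls were made as follows: active = GTP binding activity at least 20 points away from 100%, either lowered or raised; inconclusive = signal likely due to the compound's own green fluorescence; inactive = the rest.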

target: Ras-related protein Rab-2A (Canis lupus familiaris) (UniProt P61105); assay: Rab2 wt fluorescent GTP binding changes, either direction – biochemical, dog, bead-based flow cytometry, multiplex, primary screen (AID 760); settings: GST-Rab2 wt beads, Bodipy-GTP binding, at 10 µM;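 also: 0% = beads with excess unlabeled GTP and 100% = no-compound control corrected for plate trend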

Question: How did the GTP binding activity turn out when `O=C(O)c1cc(C(=O)O)cc(-c2ccc(/C=c3/sc4nc5ccccc5n4c3=O)o2)c1` was run?
Answer: active: 79%

Question: Which GTP binding activity does the source give for `COc1ccc2c(c1)c(=O)oc1c(C)c(OCc3cc(C(=O)O)oc3C)ccc12` here?
Answer: inconclusive: 87%

Question: Which GTP binding activity does the source give for `CCOC(=O)CN1C(=O)CN(c2ccc(C)c(C)c2)C1=O` here?
Answer: inconclusive: 104%

Question: With `O=C(O)c1ccc2cc[nH]c2c1` as the molecule, how does the GTP binding activity read?
Answer: inconclusive: 92%

Question: How did the GTP binding activity turn out when `CC[n+]1c(C)sc2c3ccsc3ccc21` was run?
Answer: inconclusive: 91%

Question: How did the GTP binding activity turn out when `Cc1ccc(C)c(S(=O)(=O)NCc2ccc(C(=O)NCc3ccccn3)cc2)c1` was run?
Answer: inconclusive: 105%

Question: Which GTP binding activity does the source give for `COC(=O)C1C(O)=C(C=Nc2ccc(N)cc2)C(=O)CC1(C)C` (configuration not stated) here?
Answer: inactive: 101%

Question: How did the GTP binding activity turn out when `CC(=O)c1cccc(NC(=O)Cn2nc(-c3ccc(Cl)cc3)ccc2=O)c1` was run?
Answer: inactive: 99%

Question: `COc1ccc(C(=O)CN2C(=O)c3ccccc3C2=O)c(OC)c1C` was tested. Which GTP binding activity did it give?
Answer: inconclusive: 92%

Question: How did the GTP binding activity turn out when `COc1cc2[nH]c(=O)n(CCC(=O)NCCCN3CCN(c4ccccc4F)CC3)c(=O)c2cc1OC` was run?
Answer: inconclusive: 97%

Question: With `COc1cccc2c(=O)n(CC(=O)Nc3ccccc3F)ccc12` as the molecule, how does the GTP binding activity read?
Answer: inconclusive: 104%

Question: `O=C(CSc1nnc2ccccn12)Nc1ccccc1C(=O)O` was tested. Which GTP binding activity did it give?
Answer: inconclusive: 127%

Question: How did the GTP binding activity turn out when `COc1cc(/C=N/Nc2nn3cnnc3c3ccccc23)ccc1O` was run?
Answer: active: 72%

Question: With `Cc1c(NC(=O)c2ncn[nH]2)cccc1-c1nc2ccccc2s1` as the molecule, how does the GTP binding activity read?
Answer: inactive: 100%

Question: How did the GTP binding activity turn out when `O=C(Cn1cnc2cc([N+](=O)[O-])ccc2c1=O)NC1CCS(=O)(=O)C1` (configuration not stated) was run?
Answer: inconclusive: 93%

Question: `O=C(C1CCCN(Cc2nc(-c3cccs3)no2)C1)N1CCOCC1` (configuration not stated) was tested. Which GTP binding activity did it give?
Answer: inactive: 97%

Question: For `Cc1cccc(C(C)C)c1NC(=O)CSc1nncn1C`, which GTP binding activity is on record?
Answer: inconclusive: 106%

Question: `CCN(C(=O)COC(=O)c1cc(S(=O)(=O)N2CCc3ccccc32)ccc1OC)C1CCS(=O)(=O)C1` (configuration not stated) was tested. Which GTP binding activity did it give?
Answer: inactive: 96%

Question: Which GTP binding activity does the source give for `COc1cc(-c2nn3c(-c4ccccn4)nnc3s2)cc(OC)c1OC` here?
Answer: inconclusive: 93%

Question: `CCN(CC)S(=O)(=O)c1ccc2c(c1)nc(CCC(=O)Nc1ccccc1Cc1ccccc1)n2CC` was tested. Which GTP binding activity did it give?
Answer: inconclusive: 90%

Question: For `COc1cccc(CC2(CO)CCCN(CC3=Cc4cc(Cl)ccc4OC3)C2)c1` (configuration not stated), which GTP binding activity is on record?
Answer: inactive: 97%

Question: How did the GTP binding activity turn out when `Cc1ccc(NC(=O)c2ccco2)c(NC(=O)c2cccs2)c1` was run?
Answer: inconclusive: 106%

Question: For `COc1ccc(C(=O)N2CCOC2CNC(=O)C(=O)NCc2ccc(Cl)cc2)cc1` (configuration not stated), which GTP binding activity is on record?
Answer: inconclusive: 95%

Question: `COc1ccc(C(=O)N=c2sc3c(C)ccc(OC)c3n2C)cc1` was tested. Which GTP binding activity did it give?
Answer: inactive: 100%

Question: How did the GTP binding activity turn out when `O=P(O)(O)C(O)C(F)(F)C(F)(F)C(F)(F)C(F)F` (configuration not stated) was run?
Answer: inconclusive: 104%

Question: Which GTP binding activity does the source give for `Cc1ccc(C(=S)N2CCN(Cc3ccccc3)CC2)s1` here?
Answer: inconclusive: 91%

Question: How did the GTP binding activity turn out when `CN1CCNC(=O)C1CC(=O)NCCc1ccccc1F` (configuration not stated) was run?
Answer: inactive: 98%

Question: With `O=C(COC(=O)CCc1ccc(S(=O)(=O)N2CCOCC2)cc1)NC(=O)NC1CCCCC1` as the molecule, how does the GTP binding activity read?
Answer: inactive: 96%

Question: How did the GTP binding activity turn out when `COc1ccc(-c2nnc3ccc(SCC(=O)N4CCCCC4)nn23)cc1OC` was run?
Answer: inconclusive: 90%

Question: For `COc1cc(CNC(=O)c2cccc(COc3ccc(Cl)cc3)c2)cc(OC)c1`, which GTP binding activity is on record?
Answer: inactive: 94%

Question: Which GTP binding activity does the source give for `O=C1S/C(=C/c2ccc(N3CCOCC3)o2)C(=O)N1Cc1ccc(F)cc1` here?
Answer: inconclusive: 110%

Question: How did the GTP binding activity turn out when `O=S(=O)(Cc1cc(N2CCOCC2)nc(-c2ccccn2)n1)c1ccccc1` was run?
Answer: inconclusive: 94%

Question: Which GTP binding activity does the source give for `Cc1c(Cl)cccc1NS(=O)(=O)c1ccc2c(c1)C1C=CCC1C(c1ccc(C(=O)O)cc1)N2` (configuration not stated) here?
Answer: inactive: 80%

Question: For `CCOC(=O)c1cc(C)n(-c2ccc(OC)c(OC)c2)c1C`, which GTP binding activity is on record?
Answer: inconclusive: 83%

Question: With `O=C(Nc1nc(-c2cccs2)cs1)c1cc2ccccc2oc1=O` as the molecule, how does the GTP binding activity read?
Answer: inconclusive: 75%

Question: For `O=C(COC(=O)CC12CC3CC(CC(C3)C1)C2)Nc1cccnc1Cl`, which GTP binding activity is on record?
Answer: inactive: 95%

Question: `CCOC(=O)c1[nH]ncc1CN1CCN(Cc2ccccc2)C(CCO)C1` (configuration not stated) was tested. Which GTP binding activity did it give?
Answer: inactive: 99%

Question: Which GTP binding activity does the source give for `O=C(CNc1ccc2c(c1)OCO2)N/N=C\c1ccccc1Cl` here?
Answer: inconclusive: 86%

Question: With `C=CCn1c(SCC(=O)NC2CCCc3ccccc32)nnc1-c1ccncc1` (configuration not stated) as the molecule, how does the GTP binding activity read?
Answer: inactive: 101%

Question: For `CCC(CC)C(=O)c1c[nH]c(C(=O)N2CCN(c3ccccc3)CC2)c1`, which GTP binding activity is on record?
Answer: inactive: 96%

Question: How did the GTP binding activity turn out when `COc1ccc(Cc2noc(CN(C)CC(O)c3ccccc3)n2)cc1OC` (configuration not stated) was run?
Answer: inactive: 96%

Question: How did the GTP binding activity turn out when `O=C(Nc1ccccc1Cl)N1CCN(c2ccc3nnc(-c4ccc(F)cc4)n3n2)CC1` was run?
Answer: inconclusive: 96%

Question: How did the GTP binding activity turn out when `CC(=O)c1c(C)[nH]c(C(=O)O)c1C` was run?
Answer: inconclusive: 94%

Question: Which GTP binding activity does the source give for `CCN=C1SC(C(=O)Nc2cccc(C)c2)CC(=O)N1CC` (configuration not stated) here?
Answer: inconclusive: 104%

Question: With `O=C(Nc1ccc(Cl)cc1)N1CCN(c2ccc3nnc(-c4ccc(F)cc4)n3n2)CC1` as the molecule, how does the GTP binding activity read?
Answer: inconclusive: 78%

Question: `NC(=S)N=Nc1c(O)[nH]c2cc(F)c(F)cc12` was tested. Which GTP binding activity did it give?
Answer: active: 78%

Question: How did the GTP binding activity turn out when `CCCCNC(=S)Nc1ccc(-c2nc3ccc(C)cc3s2)cc1` was run?
Answer: inconclusive: 100%
